B1: LINE1-full (parent)
chain: UACGUAGGUGGUUUUCCCCUGAUAGUGCUAAGGGGGCCUGGAAGUUUGGACUGGGCAGAGCUCAACACAGCGUGGCAAAGUGGCUGUGGCUAGACUGCCUCUCUGGAUUCCUCGUCACUCAGCAGGGCAUCUCUGAGAGAAAUGCC

This is an account of results in the RNAGym collection of RNA variant scans (doi:10.7554/elife.90254).

The source gives no read counts; variants with many changes may rest on few reads.

The data set covers variants of B1. As to the kind of experiment: self-cleavage, relative activity (ratio to wild type); higher = more cleavage; in vitro, sequencing; the parent is a self-cleaving ribozyme.
UACGUAGGCGGUUUUCCCCUGAUAGUGCUAAGGGGGCCUGGAAGUUUGGACUGGGCAGAGCCCAACACCGCGUGGCAAAGUGGCAGUGGCUAGACUGCCUCUCUGGAUUCCUCGUCACUCAGCAGGGCAUCUCUGAGAGAAAUGCC [U9C U62C A69C U85A]: the self-cleavage worked out at 0. The value for UACGUAGGCGGUUUUCCCCUGAUAGUGCUAAGGGGGCCUGGAAGUUUGGACUGGGCAGAGCUCAACACAGCGUGGCAAAGUGGCUGUGGCUAGACUGCCCCUCUGGAUUCCUCGUCACUCAGCAGGGCAUCUCUGAGAGAAGUGCC [U9C U100C A142G] was 1.41. The value for UACGUAGGCGGUUUUCCCCUGAUAGUGCUAAGGGGGCCUGGAAGUUUGGACUGGGCAGAGCCCAACACAGCGAGGCAAAGUGGCUGUGGCUAGACUGCCUCUCUGGAUUCCUCGUCACUCAGCAGGGCAUCUCUGAGAGAAAUGCC [U9C U62C U73A] was 0.09; that for UACGUAGGCGGUUUUCCCCUGAUAGUGCUAAGGGGGCCUGGAAGUUUGGACUGGGCAGAGCUCAACACAGCGUGGCAAAGUGGCUGUGGCUAGACUGCCCCUCUGGAUUCCUCGUCGCUCAGCAGGGCAUCUCUGAGAGAAAUGCC [U9C U100C A117G] was 0. On to UACGUAGGCGGUUUUCCCCUGAUAGUGCUAAGGGGGCCUGGAAGUUUGGACUGGGCAGAGCCCAACACAGCGAGGCAAAGUGGCUGUGGCUAGACUGCCUCUCUGGAUUCCUCGUCACUCAGCAGGGCACCUCUGAGAGAAAUGCC [U9C U62C U73A U130C], for which the self-cleavage turned out to be 0.

For the variant UACGUAGGCGGUUUUCCCCUGAUAGUGCUAAGGGGGCCUGGAAGUUUGGACUGGGCAGAGCUCAACACAGCGUGGCAAAGUGGCUGUGGCAAGACUGCCUCUCUGGAUCCCUCGUCACUCAGCAGGGCAUCUCUGAGAGAAAUGCC [U9C U91A U109C], the self-cleavage was found to be 0.8.

As for UACGUAGGCGGUUUUCCCCUGAUAGUGCUAAGGGGGCCUGGAAGUUUGGACUGGGCAGAGCUCAACACAGCGUGGCAAAGUGGCCGUGGCUAGACUGCCUCUCUGGAUUCCCCGUUACUCAGCAGGGCAUCUCUGAGAGAAAUGCC [U9C U85C U112C C116U], the self-cleavage worked out at 0.2. For UACGUAGGCGGUUUUCCCCUGAUAGUGCUAAGGGGGCCUGGAAGUUUGGACUGGGCAGAGCACAACACAGCGUGGCAAAGUGGCUGUGGCUAGACUGCCUCUCUGGAUUCCUCGUCACUCAGCGGGGCAUCUCUGAGAGAAAUGCC [U9C U62A A124G] the value was 0; for UACGUAGGCGGUUUUCCCCUGAUAGUGCUAAGGGGGCCUGGAAGUUUGGACUGGGCAGAGCUCAACACAGCGUGGCAAAGUGGCAGUGGCUUGACUGCCUCUCUGGAUUCCUCGUCACUCAGCAGGGCAUCUCUGAGAGAAGUGCC [U9C U85A A92U A142G], 0; for UACGUAGGCGGUUUUCCCCUGAUAGUGCUAAGGGGGCCUGGAAGUUUGGACUGGGCAGAGCUCAACACAGCGUGGCAAAGUGGCUGUGGCCAGACUGCCUCUCUGGAUUCCUCGUCACUCAGCAGGGCAUCCCUGAGAGAAAUGCC [U9C U91C U132C], 0.32. As to UACGUAGGCGGUUUUCCCCUGAUAGUGCUAAGGGGGCCUGGAAGUUUGGACUGGGCAGAGCUCAACACAGCGUGGCAAAGUGGCUGUGGCAGGACUGCCUCUCUGGAUUCCUCGUCACUCAGCAGGGCAUCUCUGAGAGAAAUGCC [U9C U91A A92G], the self-cleavage was found to be 0.1.

With UACGUAGGCGGUUUUCCCCUGAUAGUGCUAAGGGGGCCUGGAAGUUUGGACUGGGCAGAGCUCAACACAGCGUGGCAAAGUGGCUGUGGCUAGACUGCCUCUCCGGGUUCCUCGUCACUCAGCAGGGCAUCUCUGAGAGAAAUGCC [U9C U104C A107G], the self-cleavage was determined as 0. In the case of UACGUAGGCGGUUUUCCCCUGAUAGUGCUAAGGGGGCCUGGAAGUUUGGACUGGGCAGAGCUCAACACAGCGUGGCAAAGUGGCUGUGGCUAGACUGCCUCCCUGGAUUCCUCGUCGCUCAGCAGGGCAUCUCUGAGAGAAAUGCC [U9C U102C A117G], the self-cleavage was determined as 0.

Consider UACGUAGGCGGUUUUCCCCUGAUAGUGCUAAGGGGGCCUGGAAGUUUGGACUGGGCAGAGCCCAACACAGCAUGGCAAAGUGGCUGUGGCUAGACUGCCUCUCUGGAUUCCUCGUCACUCAGCAGGGCAUCUCUGAGAGAAAUGCC [U9C U62C G72A], for which the self-cleavage stood at 0.09. As for UACGUAGGCGGUUUUCCCCUGAUAGUGCUAAGGGGGCCUGGAAGUUUGGACUGGGCAGAGCUCAACACAGCGUGGCAAAGUGGCUGCGGCUAGACCGCCUCUCUGGAUUCCUCGUCACUCAGCAGGGCAUCUCUGAGAGAAGUGCC [U9C U87C U96C A142G], the self-cleavage worked out at 0. For UACGUAGGCGGUUUUCCCCUGAUAGUGCUAAGGGGGCCUGGAAGUUUGGACUGGGCAGAGCUCAACACAGCGUGGCAAAGUGGCUGUGGCUAGACUGCCACUCUGGACUCCUCGUCACUCAGCAGGGCAUCUCUGAGAGAAACGCC [U9C U100A U108C U143C] the value was 0.77; for UACGUAGGCGGUUUUCCCCUGAUAGUGCUAAGGGGGCCUGGAAGUUUGGACUGGGCAGAGCACAACACAGCGUGGCAAAGUGGCUGUGGCUAGACUGCCUCUCUGGAUUCCUUGUCACUCAGCAGGGCAUCUCUGAGAGAAUUGCC [U9C U62A C113U A142U], 0.04. As to UACGUAGGCGGUUUUCCCCUGAUAGUGCUAAGGGGGCCUGGAAGUUUGGACUGGGCAGAGCUCAACACAGCGUGGCAAAGUGGCUGUGGCUAGACCGCCUCUCUGGACUCCUCGUCACUCAGCAGGGCAUCUCUGAGAGAAAUGCC [U9C U96C U108C], the self-cleavage was 0. As for UACGUAGGCGGUUUUCCCCUGAUAGUGCUAAGGGGGCCUGGAAGUUUGGACUGGGCAGAGCUCAACACAGCGUGGCAAAGUGGCUGUGGCUAGACUGCCUCCCUGGAUUCCUCGUCACUCAACAGGGCAUCUCUGAGAGAAAAGCC [U9C U102C G122A U143A], the self-cleavage came out at 1.54.

For the variant UACGUAGGCGGUUUUCCCCUGAUAGUGCUAAGGGGGCCUGGAAGUUUGGACUGGGCAGAGCUCAACACAGCGUGGCAAAGCGGCUGUGGCUAGACUGCCCCUCUGGAUUCCUCGUCACUCAGCAGGGCAUCUCUGAGAGAAAUGCC [U9C U81C U100C], the self-cleavage stood at 2.12.
